Assay results from PubChem BioAssay (NCI).
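Dose response: 5 concentrations. Exposure: 48 h. Format: 96-well plates. Endpoint: linear interpolation; highest concentration if not reached. At the GI50, growth is halved. At the TGI there is no net growth.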

system: NCI-H322M lung; test: DTP human tumour cell line panel, 48 h

With `Oc1ccc(C2Oc3cc(O)cc4c3C2c2cc(O)cc3c2C(c2cc(O)cc5c2C4C(c2ccc(O)cc2)O5)C(c2ccc(O)cc2)O3)cc1` (centres undefined) as the compound, how does the TGI read?
The TGI was over 25 µM.

With `COc1ccc(-c2cc(-c3ccc(OC)cc3)nc(NCCCNc3ccnc4cc(Cl)ccc34)n2)cc1` as the compound, how does the GI50 read?
The GI50 was 1.95 µM.

What about the TGI of the same compound?
The TGI was 4.37 µM.

With `O=c1oc2cc(O)ccc2c2oc3cc(O)ccc3c12` as the compound, how does the TGI read?
The TGI was over 85.5 µM.

`Cn1ccc(=NS(=O)(=O)c2ccccc2)cc1` was tested. Which TGI did it give?
Its TGI is over 100 µM.

Which TGI does the source give for `COc1ccc2nc3cc([N+](=O)[O-])ccc3c(Nc3ccc(S(=O)(=O)Nc4ncccn4)cc3)c2c1` here?
Its TGI is over 100 µM.

For `CC(C)C1=CC2=CC[C@@H]3[C@](C)(CCC[C@@]3(C)C(=O)O)[C@H]2CC1`, which TGI is on record?
Its TGI is over 100 µM.

Which GI50 does the source give for `O=C(Nc1n[nH]c2nc(-c3ccc(O)cc3)c(Br)cc12)C1CC1` here?
The GI50 was 5.54 µM.

What about the TGI of the same compound?
The TGI was 19.3 µM.

`Cc1ccc(N=C2OP(=O)(Nc3ccc(C)cc3)Oc3ccccc32)cc1` (centres undefined) was tested. Which TGI did it give?
Its TGI is over 100 µM.

`CCCCCCCC(=O)OCC1OC(n2cc(F)c(=O)[nH]c2=O)C(N)C(O)C1O` (centres undefined) was tested. Which TGI did it give?
The TGI was over 100 µM.

For `CN1c2c(nc(N)[nH]c2=O)NCC1CCNc1ccc(C(=O)NC(CCC(=O)O)C(=O)O)cc1` (centres undefined), which TGI is on record?
Its TGI is 2930 µM.

Which TGI does the source give for `CC(=O)Nn1cnc(C(=N)C#N)c1N` here?
The TGI was over 100 µM.

Which TGI does the source give for `Cc1nc(-n2nc(-c3ccccc3)cc2-c2ccccc2)sc1C(=O)/C=C/c1ccc([N+](=O)[O-])cc1` here?
The TGI was over 87.7 µM.

For `O=C1/C(=C/c2ccc(F)cc2)CN(C(=O)C(Cl)Cl)C/C1=C\c1ccc(F)cc1`, which GI50 is on record?
The GI50 was 0.755 µM.

What about the TGI of the same compound?
The TGI was 2.02 µM.

How did the TGI turn out when `COc1ccc(-c2cc(=O)c3cc(C)c(C)c(C(=O)O)c3o2)cc1` was run?
Its TGI is over 100 µM.

`COc1ccccc1NC(=O)C1=C(C)NC(C)=C(C(=O)Nc2ccccc2OC)C1c1ccccc1Cl` was tested. Which TGI did it give?
Its TGI is over 100 µM.

How did the GI50 turn out when `C#Cc1cccc(NC(=O)c2cccc(NC(=O)CCl)c2)c1` was run?
The GI50 was 71.4 µM.

What about the TGI of the same compound?
Its TGI is over 82.5 µM.

Which TGI does the source give for `O=Cc1ccccc1CCn1c(=O)c2cc3c(=O)n(CCc4ccccc4C=O)c(=O)c3cc2c1=O` here?
The TGI was over 100 µM.

What does the source list for `CC(=O)Nc1ccc(OC(C)=O)cc1`?
GI50: 0.229 µM; TGI: > 100 µM

With `O=C(O)CN1C(=O)CN=C(c2ccccn2)c2cc(Cl)ccc21` as the compound, how does the TGI read?
Its TGI is over 100 µM.
